The IC50 comes from the fitted curve, where viability falls to half of the control; a limit (>, <) means that the fit lies beyond the doses tested. AUC sums up the same curve from the lowest dose to the 256-fold higher top dose; it is 1 without any effect and falls as sensitivity rises. For part of these data: A top dose marked as inferred is not printed in the source and was worked back from the curve model. For part of these data: Where an entry number is given, a second screen of the drug exists; the two often differ.
Legend:
Assay in all cases: Viability of human cancer cell lines after 72 h of drug (GDSC screen)
GDC0941 = compound: CS(=O)(=O)N1CCN(Cc2cc3nc(-c4cccc5[nH]ncc45)nc(N4CCOCC4)c3s2)CC1 [GDC0941]; settings: top dose 4 µM; screen: GDSC drug entry 1527; top dose inferred
Experimental: (§1)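 Human cancer cell lines in 384-well plates, medium with 10% serum, drug for 72 h over a 256-fold dose range (nine 2-fold or five 4-fold steps up to the top dose). Adherent lines were fixed and stained with the nucleic acid dye Syto60, suspension lines read with resazurin; signal relative to control wells, capped at 0 and 100%. One two-parameter sigmoid per drug and line, fitted in a mixed model over all curves with the slope shared within a line.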

AR-42 = compound: CC(C)[C@H](C(=O)Nc1ccc(C(=O)NO)cc1)c1ccccc1 [AR-42]; settings: top dose 5.12 µM; top dose inferred
Experimental: as §1

Pazopanib = compound: Cc1ccc(Nc2nccc(N(C)c3ccc4c(C)n(C)nc4c3)n2)cc1S(N)(=O)=O [Pazopanib]; settings: top dose 8 µM
Experimental: as §1

SB 216763 = compound: Cn1cc(C2=C(c3ccc(Cl)cc3Cl)C(=O)NC2=O)c2ccccc21 [SB 216763]; settings: top dose 10 µM; top dose inferred
Experimental: as §1

CEP-701 = compound: C[C@]12O[C@H](C[C@]1(O)CO)n1c3ccccc3c3c4c(c5c6ccccc6n2c5c31)CNC4=O [CEP-701]; settings: top dose 2 µM; top dose inferred
Experimental: as §1

Cell Line | AUC (GDC0941) | IC50 (GDC0941) [nM] | AUC (AR-42) | IC50 (AR-42) [nM] | AUC (Pazopanib) | IC50 (Pazopanib) [nM] | AUC (SB 216763) | IC50 (SB 216763) [nM] | AUC (CEP-701) | IC50 (CEP-701) [nM]
WM35 (melanoma, adherent) | 0.763 | 1450 | 0.476 | 274 | 0.962 | > 8000 | 0.963 | > 10000 | 0.674 | 383
EBC-1 (lung squamous cell carcinoma, adherent) | 0.675 | 822 | 0.711 | 1370 | 0.932 | > 8000 | 0.979 | > 10000 | 0.852 | 1870
KYSE-70 (oesophagus, adherent) | 0.851 | 3520 | 0.683 | 1100 | 0.888 | > 8000 | 0.987 | > 10000 | 0.904 | > 2000
CS1 (bone, adherent) | 0.916 | > 4000 | 0.631 | 772 | 0.908 | > 8000 | 0.971 | > 10000 | 0.696 | 477
C3A (liver, adherent) | 0.891 | > 4000 | 0.737 | 1580 | 0.878 | > 8000 | 0.983 | > 10000 | 0.849 | 1590
H2595 (mesothelioma, adherent) | 0.863 | > 4000 | 0.614 | 746 | 0.962 | > 8000 | 0.973 | > 10000 | 0.972 | > 2000
RO82-W-1 (thyroid, adherent) | 0.777 | 2080 | 0.637 | 852 | 0.958 | > 8000 | 0.948 | > 10000 | 0.773 | 1010
COR-L23 (large cell lung carcinoma, adherent) | 0.845 | 2770 | 0.545 | 424 | 0.934 | > 8000 | 0.985 | > 10000 | 0.723 | 527
NCI-H727 (lung carcinoid, adherent) | 0.898 | > 4000 | 0.808 | > 5120 | 0.773 | 5540 | 0.959 | > 10000 | 0.605 | 292
SK-MEL-24 (melanoma, adherent) | 0.825 | 3120 | 0.674 | 1090 | 0.983 | > 8000 | 0.983 | > 10000 | 0.691 | 483
KMH-2 (thyroid, adherent) | 0.86 | 2770 | 0.96 | > 5120 | 0.896 | 7990 | 0.963 | > 10000 | 0.731 | 519
NUGC-4 (stomach, adherent) | 0.782 | 1670 | 0.629 | 728 | 0.894 | > 8000 | 0.988 | > 10000 | 0.89 | > 2000
huH-1 (liver, adherent) | 0.876 | > 4000 | 0.794 | 3000 | 0.965 | > 8000 | 0.984 | > 10000 | 0.582 | 221
HuO9 (osteosarcoma, adherent) | 0.55 | 348 | 0.757 | 1950 | 0.976 | > 8000 | 0.979 | > 10000 | 0.629 | 296
H4 (glioma, adherent) | 0.681 | 794 | 0.574 | 510 | 0.746 | – | 0.935 | > 10000 | 0.259 | 25.7
G-361 (melanoma, adherent) | 0.83 | 2360 | 0.432 | 210 | 0.764 | 2790 | 0.988 | > 10000 | 0.604 | 238
22RV1 (prostate, adherent) | 0.749 | 1580 | 0.408 | 168 | 0.958 | > 8000 | 0.98 | > 10000 | 0.782 | 1060
H2373 (mesothelioma, adherent) | 0.728 | 1330 | 0.595 | 622 | 0.905 | > 8000 | 0.983 | > 10000 | 0.506 | 131
MDA-MB-175-VII (breast, adherent) | 0.835 | 3010 | 0.675 | 1040 | 0.981 | > 8000 | 0.988 | > 10000 | 0.809 | 1180
KMRC-1 (kidney, adherent) | 0.874 | > 4000 | 0.62 | 702 | 0.896 | > 8000 | 0.924 | > 10000 | 0.889 | > 2000
HCC1428 (breast, adherent) | 0.979 | > 4000 | 0.511 | 344 | 0.909 | > 8000 | 0.987 | > 10000 | 0.976 | > 2000
HOP-92 (large cell lung carcinoma, adherent) | 0.619 | 561 | 0.754 | 1970 | 0.884 | > 8000 | 0.941 | > 10000 | 0.75 | 746
NCI-H2405 (lung adenocarcinoma, adherent) | 0.829 | 2860 | 0.688 | 1140 | 0.933 | > 8000 | 0.88 | > 10000 | 0.845 | 1680
RERF-LC-KJ (lung adenocarcinoma, adherent) | 0.89 | > 4000 | 0.913 | > 5120 | 0.932 | > 8000 | 0.987 | > 10000 | 0.782 | 864
HT-1080 (fibrosarcoma, adherent) | 0.82 | 1990 | 0.764 | 1680 | 0.917 | > 8000 | 0.987 | > 10000 | 0.264 | 28.9
COLO-679 (melanoma, adherent) | 0.906 | > 4000 | 0.736 | 1660 | 0.84 | 6470 | 0.984 | > 10000 | 0.681 | 427

Cell Line | AUC (GDC0941) | IC50 (GDC0941) [nM] | AUC (AR-42) | IC50 (AR-42) [nM] | AUC (Pazopanib) | IC50 (Pazopanib) [nM] | AUC (SB 216763) | IC50 (SB 216763) [nM] | AUC (CEP-701) | IC50 (CEP-701) [nM]
UMC-11 (lung carcinoid, adherent) | 0.971 | > 4000 | 0.338 | 120 | 0.961 | > 8000 | 0.991 | > 10000 | 0.795 | 818
CAL-62 (thyroid, adherent) | 0.766 | 1410 | 0.608 | 622 | 0.945 | > 8000 | 0.988 | > 10000 | 0.731 | 548
LU-135 (small cell lung carcinoma, suspension) | 0.97 | > 4000 | 0.511 | 341 | 0.969 | > 8000 | 0.986 | > 10000 | 0.555 | 172
T84 (large intestine, adherent) | 0.722 | 1080 | 0.62 | 689 | 0.989 | > 8000 | 0.989 | > 10000 | 0.97 | > 2000
EFM-19 (breast, adherent) | 0.641 | 752 | 0.557 | 494 | 0.744 | 3690 | 0.978 | > 10000 | 0.539 | 168
C32 (melanoma, adherent) | 0.876 | > 4000 | 0.966 | > 5120 | 0.984 | > 8000 | 0.952 | > 10000 | 0.686 | 432
SNU-449 (liver, adherent) | 0.685 | 868 | 0.777 | 2260 | 0.905 | > 8000 | 0.945 | > 10000 | 0.856 | 1850
HGC-27 (stomach, adherent) | 0.384 | 127 | 0.574 | 493 | 0.868 | 5510 | 0.976 | > 10000 | 0.582 | 202
451Lu (melanoma, adherent) | 0.987 | > 4000 | 0.634 | 739 | 0.972 | > 8000 | 0.987 | > 10000 | 0.434 | 83.2
TYK-nu (ovary, adherent) | 0.901 | > 4000 | 0.558 | 467 | 0.951 | > 8000 | 0.964 | > 10000 | 0.57 | 197
PANC-03-27 (pancreas, adherent) | 0.765 | 1380 | 0.698 | 1100 | 0.927 | > 8000 | 0.989 | > 10000 | 0.683 | 391
SW948 (large intestine, adherent) | 0.939 | > 4000 | 0.565 | 521 | 0.971 | > 8000 | 0.978 | > 10000 | 0.883 | > 2000
SCC-25 (head and neck, adherent) | 0.712 | 1090 | 0.501 | 323 | 0.935 | > 8000 | 0.984 | > 10000 | 0.727 | 608
RPMI-8866 (chronic myeloid leukaemia, suspension) | 0.305 | 74.4 | 0.342 | 121 | 0.966 | > 8000 | 0.95 | > 10000 | 0.383 | 61.3
UACC-893 (breast, adherent) | 0.761 | 1900 | 0.824 | 4530 | 0.975 | > 8000 | 0.979 | > 10000 | 0.955 | > 2000
JIMT-1 (breast, adherent) | 0.636 | 615 | 0.791 | 2490 | 0.869 | > 8000 | 0.972 | > 10000 | 0.823 | 1300
KON (head and neck, adherent) | 0.648 | 637 | 0.937 | > 5120 | 0.956 | > 8000 | 0.987 | > 10000 | 0.431 | 81.2
UM-UC-3 (bladder, adherent) | 0.818 | 2080 | 0.673 | 937 | 0.946 | > 8000 | 0.988 | > 10000 | 0.859 | 1500
COLO-680N (oesophagus, adherent) | 0.967 | > 4000 | 0.981 | > 5120 | 0.98 | > 8000 | 0.986 | > 10000 | 0.951 | > 2000
ABC-1 (lung adenocarcinoma, adherent) | 0.676 | 866 | 0.548 | 446 | 0.966 | > 8000 | 0.983 | > 10000 | 0.931 | > 2000
CaR-1 (large intestine, adherent) | 0.737 | 1710 | 0.633 | 897 | 0.914 | > 8000 | 0.914 | > 10000 | 0.539 | 168
SNU-C2B (large intestine, adherent) | 0.838 | > 4000 | 0.539 | 422 | 0.932 | > 8000 | 0.976 | > 10000 | 0.807 | 1440
G-401 (kidney, adherent) | 0.643 | 648 | 0.558 | 468 | 0.623 | 1130 | 0.979 | > 10000 | 0.672 | 397
EFO-27 (ovary, adherent) | 0.524 | 296 | 0.536 | 411 | 0.954 | > 8000 | 0.961 | > 10000 | 0.713 | 588
KYSE-150 (oesophagus, adherent) | 0.952 | > 4000 | 0.852 | 3700 | 0.976 | > 8000 | 0.96 | > 10000 | 0.76 | 679
CAL-72 (osteosarcoma, adherent) | 0.85 | 3930 | 0.954 | > 5120 | 0.812 | 5280 | 0.958 | > 10000 | 0.617 | 278
